Compound in one assay: Nc1[nH]nc2nnc(-c3c(-c4ccccc4)nn4ccccc34)cc12 [FR-180204]
Description: Viability of human cancer cell lines after 72 h of drug (GDSC screen). The note with it: top dose 20 µM; top dose inferred. As for the experimental part: (§1)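 Human cancer cell lines in 384-well plates, medium with 10% serum, drug for 72 h over a 256-fold dose range (nine 2-fold or five 4-fold steps up to the top dose). Adherent lines were fixed and stained with the nucleic acid dye Syto60, suspension lines read with resazurin; signal relative to control wells, capped at 0 and 100%. One two-parameter sigmoid per drug and line, fitted in a mixed model over all curves with the slope shared within a line.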

Compound in a further assay: O=C(/C=C/c1cccnc1)NCCCCC1CCN(C(=O)c2ccccc2)CC1 [FK866]
The assay is described as above. Conditions: top dose 1 µM; top dose inferred. As for the experimental part: as §1

pIC50: −log10 of the molar value. By IC50 is meant the dose at which the fit gives 50% viability; fits outside the tested doses are given as limits. For AUC the same curve is integrated over the 256-fold range of doses and scaled to a fraction: 1 means no effect, lower means more sensitive. The top dose, if marked as inferred, was calculated from the reported fits. Bounds are passed on as bounds.

For orientation: pIC50 means the IC50 on a negative log10 scale, so that one unit is a factor of ten. In the case of YT (lymphoid neoplasm, suspension), in the assay with FR-180204, the AUC was determined as 0.988 and the negative logarithm of the IC50 (pIC50) was < 4.70. In addition, in the assay with FK866, the AUC was found to be 0.176 and the negative-log IC50 (pIC50) is 8.09.

As for huH-1 (liver, adherent), in the assay with FR-180204, the AUC was 0.983 and the negative-log IC50 (pIC50) was < 4.70. In the assay with FK866, the AUC was determined as 0.951 and the pIC50 is < 6.00.

For the cell line no-10 (glioma, adherent), in the assay with FR-180204, the AUC amounted to 0.983 and the pIC50 is < 4.70. In the assay with FK866, the AUC stood at 0.843 and the pIC50 was 6.02.

no-11 (glioma, adherent): in the assay with FR-180204, the AUC stood at 0.981 and the negative logarithm of the IC50 (pIC50) was < 4.70. Moreover, in the assay with FK866, the AUC came to 0.93 and the pIC50 was < 6.00.

The values above are taken from the supplement of paper PMC4967469.
